# Reference: PubChem BioAssay AID651820 (National Center for Advancing Translational Sciences (NCATS), 2012)
# Several values for one entry are separate records, joined by “and”; a condition that tells them apart may be missing. Equal entries are not always repeated. The campaign covered roughly 340,000 compounds. About 12,000 (3.5%) were called active. The inconclusive results got no clear call from the source; some entries with a clear call stand among them for comparison. Calls follow the shape of the dose curve; as a rule, active = well fitted inhibition curve with a large enough effect; inconclusive = small, poorly fitted or top-dose-only effect, or another doubt; inactive = no such curve, though single readings can be large or run the other way. A potency beside an inconclusive call is a rough fit, not a confirmed value.
# Experiment: qHTS Assay for Inhibitors of Hepatitis C Virus (HCV)
# Conditions: Huh7.5.1 HCVcc-Cre (HCVcc is cell-culture hepatitis C virus) infection, luciferase reporter, 44 h; activity change, negative = inhibition: at 41.8 µM (top of the series) unless noted
# Outline: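 Antiviral activity was scored by luciferase reporter output from cells infected with HCVcc-Cre (~0.5 moi) in presence of compound, 44 h infection period, cells seeded 1,000/well 4 h prior.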
# % is scaled to controls: 0 for no effect and ±100 for the full control effect; potency is read from the fitted curve at half-maximal effect; tags tell the direction and shape of the fitted curve.
Compound,"activity change, negative = inhibition",Potency
O=C(CSc1ncn[nH]1)NCCc1ccccc1,inactive: 5.14%,–
CCOC(=O)N1CCN(c2cc(=O)n(-c3ccc(Br)cc3)c(=O)[nH]2)CC1,inactive: 21.1%,–
CCO[C@@H]1OC(C(=O)Nc2ccccc2)=C[C@H](c2ccc(C(F)(F)F)cc2)[C@H]1CCCO,–,"inconclusive: 8.91 µM [inhibitor, partial curve]"
COc1ccc(S(=O)(=O)Nc2ccc3ccccc3c2)cc1C,–,active: 11.2 µM
CCN1C(=O)[C@H]2[C@@H](c3ccc(C)cc3)N3C(=O)N(c4cccc(Cl)c4)C(=O)[C@@]3(Cc3ccccc3)[C@H]2C1=O,–,"inconclusive: 8.91 µM [inhibitor, partial curve]"
FC(F)(F)c1cnc2c(c1)[nH]c(=S)n2-c1ccc(Cl)cc1,–,"inconclusive: 31.6 µM [inhibitor, single point]"
N#Cc1c(-c2ccco2)cc(-c2ccccc2)[nH]c1=O,inactive: -7.09%,–
Cc1cc(-c2n[nH]c(=S)n2CC(C)C)cs1,inactive: -3.17%,–
Cc1cc(C)nc(SCc2ccc(C(=O)N/N=C/c3ccco3)cc2)n1,–,"inconclusive: 31.6 µM [inhibitor, single point]"
CCOc1cc(/C=C2\N=C3CCCCCN3C2=O)ccc1O,–,"inconclusive: 22.4 µM [inhibitor, single point]"
NC(=O)CC(NC(=O)c1cccc(Br)c1)c1ccc(N2CCC(N3CCCC3)CC2)c([N+](=O)[O-])c1 (stereo not given),–,"inconclusive: 3.55 µM [inhibitor, single point]"
CC(C)(C)OC(=O)C[C@@H]1C/C=C\C[C@H](CC(=O)N(CCO)Cc2ccccc2)C(=O)NC[C@@H](c2ccccc2)OC1=O,–,"inconclusive: 8.91 µM [inhibitor, partial curve]"
CCCCCc1ccc(S(=O)(=O)NCCc2ccncc2)cc1,–,active: 10 µM
CCN1CCN(CCCNC(=O)c2cc3c(=O)oc4ccc(C)cc4c3s2)CC1,–,"inconclusive: 10 µM [inhibitor, single point]"
CC1CCc2sc(C(=O)NC3CCN(Cc4ccccc4)CC3)cc2C1 (stereo not given),–,active: 11.2 µM
C[C@@]12C(=O)Nc3cc(F)c(F)cc3C(=O)N1[C@H]1c3cc(Cl)ccc3OC[C@@H]1[C@@H]2c1ccccc1,–,"inconclusive: 3.98 µM [inhibitor, full curve]"
C[C@@H]1CN([C@H](C)CO)C(=O)c2cccc(NC(=O)Nc3ccc(F)cc3)c2O[C@H]1CN(C)C(=O)Nc1ccc(C(F)(F)F)cc1,–,"inconclusive: 11.2 µM [inhibitor, single point]"
CC1(c2nnc(-c3ccncc3)o2)CC(c2ccc(Cl)cc2)=NO1 (stereo not given),–,active: 11.2 µM
CCOc1cc(C(=O)NCCCNC(=O)c2cc(OCC)c(OCC)c(OCC)c2)cc(OCC)c1OCC,–,"inconclusive: 8.91 µM [inhibitor, partial curve]"
COc1ccc(C(=O)/C=C/Nc2ccc([N+](=O)[O-])cc2C)cc1OC,–,"inconclusive: 15.8 µM [inhibitor, single point]"
N#CCCN1CCCc2cc(N=Nc3ccc(C(F)(F)F)cc3)ccc21,–,"inconclusive: 31.6 µM [inhibitor, single point]"
Cc1noc(C)c1COc1cccc(C(=O)NC(C)(C)C)c1,inactive: -18.6%,–
CSc1nc(-c2ccc(Cl)cc2)nn1S(=O)(=O)c1ccc(Cl)cc1,–,"inconclusive: 5.62 µM [inhibitor, single point]"
O=c1cc(O)c2sc(Nc3ccc(F)cc3)nc2[nH]1,inactive: 34.2%,–

Compound,"activity change, negative = inhibition",Potency
CC1Cc2c([nH]c3ccccc23)C(=O)N1 (stereo not given),–,"inconclusive: 31.6 µM [inhibitor, single point]"
CCC(C)(C)NC(=O)CN(C(=O)c1snc(C(N)=O)c1N)c1ccc2c(c1)OCO2,–,"inconclusive: 22.4 µM [inhibitor, partial curve]"
C=CCC[C@@H](Cc1ccc(F)cc1)C(=O)OC[C@@H](C)NC(=O)[C@@H](CC=C)CC(=O)N[C@H](CO)Cc1ccccc1,–,"inconclusive: 22.4 µM [inhibitor, partial curve]"
CCCCN(C(=O)c1cc(Cl)nc2ccccc12)c1c(N)n(CCCC)c(=O)[nH]c1=O,inactive: -2.2%,–
COCCCN1CC(=O)N2C(c3cccc(OC)c3OC)c3[nH]c4ccccc4c3C[C@H]2C1=O (stereo not given in full),inactive: -6.78%,–
CCN1CCN(c2nc(N(C)c3ccccc3)nc(N)c2[N+](=O)[O-])CC1,–,"inconclusive: 31.6 µM [inhibitor, single point]"
CCOc1ccccc1NC(=O)CN1CCC(NC(=O)Nc2ccccc2)CC1,–,"inconclusive: 10 µM [inhibitor, partial curve]"
COC(=O)c1ccc(Nc2cc(C)nc3ccc(C)cc23)cc1,–,active: 10 µM
CCN(CC)CCNC(=O)c1ccc(NC(=O)c2cc(-c3ccncc3)nc3ccccc23)cc1,–,"inconclusive: 10 µM [inhibitor, partial curve]"
CCOC(=O)C1=C(COC(=O)/C=C/c2ccccc2Cl)NC(=O)NC1C (stereo not given),inactive: 7.35%,–
O=C(Nc1ccc(C(=O)N2CCOCC2)cc1)Nc1cccc(C(F)(F)F)c1,–,"inconclusive: 5.62 µM [inhibitor, single point]"
O=c1onc(-c2ccccc2)c2ccccc12,inactive: 21.8%,–
O=C(Nc1cccc(Cl)c1)Nc1nc(-c2ccccc2)cs1,inactive: -20.2%,–
O=C(CCN1CCc2ccccc2C(c2ccccc2)C1)c1ccc2c(c1)OCCO2 (stereo not given),–,"inconclusive: 22.4 µM [inhibitor, single point]"
CCc1ccc(/C=C2/Sc3ccccc3N(CC(=O)NCCCN3CCOCC3)C2=O)cc1,–,"inconclusive: 22.4 µM [inhibitor, partial curve]"
O=C(CSc1ncnc2nc[nH]c12)c1ccc2ccccc2c1,inactive: -10%,–
COc1ccc2nc(SCC(=O)NC3CCCCC3C)[nH]c2c1 (stereo not given),–,"inconclusive: 14.1 µM [inhibitor, partial curve]"
CC(C)N(C(=O)[C@H]1C[C@H](CC(=O)NCc2cccc(C(F)(F)F)c2)C(=O)N2CCc3c([nH]c4cc(-c5ccco5)ccc34)[C@]12C)C(C)C,inactive: -7.37% [at 8.37 µM],–
COc1ccccc1N1CCN(S(=O)(=O)CCNC(=O)c2cc(OC)c(OC)c(OC)c2)CC1,–,"inconclusive: 14.1 µM [inhibitor, partial curve]"
CC(C)(C)c1ccc(C(=O)NC(=S)N2CCCCCC2)cc1,–,"inconclusive: 31.6 µM [inhibitor, single point]"
COc1ccc2nc(SCC(=O)Nc3ccc(S(=O)(=O)N4CCCC4)cc3)c(C#N)cc2c1,–,"inconclusive: 3.16 µM [inhibitor, full curve] and inconclusive: 562 nM [inhibitor, full curve]"
CC1CC(C)CN(C(=O)c2ccc(N3CC4CC(C3)c3cccc(=O)n3C4)c([N+](=O)[O-])c2)C1 (stereo not given),inactive: 0.911%,–
O=C1CC(=O)N(c2ccccc2)N1c1ccccc1,inactive: 0.143%,–
CCOc1ccc(S(=O)(=O)NCCC(=O)NCC2COc3ccccc3O2)cc1 (stereo not given),inactive: -6.47%,–

Compound,"activity change, negative = inhibition",Potency
COc1ccc2[nH]c3c(c2c1)CCN1C(=O)N([C@@H](C)C(=O)NC2CCCC2)C(=O)[C@]31C,–,"inconclusive: 12.6 µM [inhibitor, partial curve]"
COc1ccc(C(=O)COC(=O)c2ccccc2C(=O)N(C)c2ccccc2)c(OC)c1,–,"inconclusive: 2 µM [inhibitor, full curve, poor fit]"
CC(=O)c1sc(NC(=O)COc2ccc(Br)cc2)nc1C,inactive: -12.5%,–
CCOc1ccccc1NC(=O)C1CCN(C(=O)Cc2ccccc2)CC1,–,active: 2.24 µM
COc1ccc(-n2c(C)cc(-c3csc(N)n3)c2C)cc1,–,"inconclusive: 10 µM [inhibitor, partial curve]"
CCOC(=O)c1c(-c2ccc(C)cc2C)csc1NC(=O)CSc1nnnn1C,–,"inconclusive: 14.1 µM [inhibitor, partial curve]"
Cc1nc(NCCc2ccc(S(N)(=O)=O)cc2)c2c(C)c(C)sc2n1,–,active: 1 µM
N#CC(C#N)=Cc1ccc(C=C(C#N)C#N)cc1,inactive: -9.79%,–
O=C(Cn1nc(C(F)(F)F)c2c1CCC2)NCc1ccc(Cl)cc1,inactive: -18.2%,–
FC(F)(F)c1ccc(C2[C@H]3CN(Cc4cccnc4)[C@H](c4ccccc4)C34CC2(c2ccccc2)C4)cc1 (stereo not given in full),inactive: -2.32% [at 8.37 µM],–
COc1ccc(C2C=C(C34CC5CC(CC(C5)C3)C4)NC(=S)N2)cc1OC (stereo not given),inactive: -24.3%,–
CCc1ccc(NC(=O)C(=O)NCC2CCCN2S(=O)(=O)c2cccs2)cc1 (stereo not given),–,"inconclusive: 10 µM [inhibitor, partial curve]"
CC(NC(=O)c1cccc(OC2CCN(C3CCN(C)CC3)CC2)c1)c1ccccc1 (stereo not given),–,"inconclusive: 25.1 µM [inhibitor, single point]"
COc1cccc(CNc2ccccn2)c1O,inactive: 3.34%,–
CC1CCCC(NC(=O)c2cc(-c3ccncc3)nc3ccccc23)C1C (stereo not given),–,"inconclusive: 0.501 µM [inhibitor, full curve, poor fit]"
CCOc1ccc(C(=O)NCC(=O)NNC(=O)C2COc3ccccc3O2)cc1OCC (stereo not given),–,"inconclusive: 8.91 µM [inhibitor, partial curve]"
CSc1ccccc1C(=O)N1CCOCC1,inactive: 3.41%,–
COc1ccc(-n2c(SCC(N)=O)nnc2-c2ccc(NS(=O)(=O)c3ccc(C)cc3)cc2)cc1,inactive: 10%,–
CCOC(=O)C(C)Sc1nc(-c2ccccn2)ncc1OC (stereo not given),–,"inconclusive: 22.4 µM [inhibitor, single point]"
O=C(CN1CCCCCC1)Nc1nc2ccccc2s1,inactive: -16.7%,–
COc1ccc(C(C)=O)cc1CS(=O)(=O)CC(=O)NCCc1c[nH]c2ccccc12,inactive: 12.6%,–
O=c1c2c(nc3c(-c4ccc(Cl)cc4)c[nH]n13)CCCC2,–,"inconclusive: 8.91 µM [inhibitor, partial curve]"
